Some of the results follow. The full chains were built here from the parent and the listed change. Values near 0.05 are background.
B1: TEV protease; numbered along this chain (parent)
chain: MGESLFKGPRDYNPISSSICHLTNESDGHTTSLYGIGFGPFIITNKHLFRRNNGTLVVQSLHGVFKVKDTTTLQQHLVDGRDMIIIRMPKDFPPFPQKLKFREPQREERICLVTTNFQTKSMSSMVSDTSCTFPSGDGIFWKHWIQTKDGQCGSPLVSTRDGFIVGIHSASNFTNTNNYFTSVPKNFMELLTNQEAQQWVSGWRLNADSVLWGGHKVFMVKPEEPFQPVKEATQL

Variants of: B1
Test: raw area under fraction-flipped curve 0-4 h after induction (AUC4h, not background-subtracted), DNA-recorder readout of cleavage of the substrate (dimensionless); higher = more cleavage of the substrate by the protease variant
Conditions: temperature: 34 °C; time window: 0-4 h after rhamnose induction
Method: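 In vivo DNA recorder in E. coli TOP10(DE3) ΔrhaA at 34 °C. Each TEVp single-site mutant (parent TEVp 0) is paired with a single-site variant of the 7-mer TEVs (canonical ENLYFQ|S). The substrate sits between flexible linkers in a Bxb1-sfGFP-TEVs-SsrA fusion, so cleavage stabilises Bxb1 and speeds flipping of a recombination array, read by NGS. The value is the raw area under the fraction-flipped curve over 0-4 h after rhamnose induction (AUC4h), with ≥20 reads per time point. It is not background-subtracted; inactive controls average about 0.047.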
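Note: Bxb1 expression induced with 0.2% (w/v) L-rhamnose at OD600 near 0.5, cultures sampled hourly, flipped fraction per protease–substrate barcode pair counted by paired-end Illumina sequencing.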

Row | Variant | area with substrate ANLYFQS | area with substrate CNLYFQS | area with substrate KNLYFQS | area with substrate LNLYFQS | area with substrate NNLYFQS | area with substrate PNLYFQS | area with substrate SNLYFQS | area with substrate TNLYFQS | area with substrate VNLYFQS | area with substrate WNLYFQS | area with substrate YNLYFQS | area with substrate GNLYFQS | area with substrate HNLYFQS | area with substrate INLYFQS | area with substrate MNLYFQS | area with substrate DNLYFQS | area with substrate QNLYFQS | area with substrate RNLYFQS | area with substrate FNLYFQS
1 | R109H | 0.062 | 0.0655 | 0.0962 | 0.0665 | 0.0731 | 0.0614 | 0.066 | 0.0724 | 0.0395 | 0.0295 | 0.0598 | – | – | – | – | – | – | – | –
2 | I110M | 0.0488 | 0.0511 | 0.061 | – | 0.0509 | 0.0635 | 0.0589 | 0.0541 | – | – | – | 0.0622 | 0.0484 | 0.0871 | 0.0571 | – | – | – | –
3 | I110Q | 0.0545 | 0.0557 | 0.0446 | – | 0.0467 | 0.061 | 0.0576 | 0.0639 | 0.0544 | 0.0425 | – | 0.0562 | 0.0564 | – | – | – | – | – | –
4 | C111I | 0.061 | 0.0836 | – | 0.0681 | 0.0717 | 0.0633 | – | 0.0551 | – | 0.0569 | 0.0648 | 0.0489 | 0.0583 | 0.0614 | 0.0626 | – | – | – | –
5 | C111N | 0.0696 | 0.0461 | 0.0732 | – | 0.068 | 0.0685 | – | 0.0347 | – | – | 0.0617 | – | 0.0688 | – | – | – | – | – | –
6 | V113A | 0.0645 | – | 0.0736 | 0.061 | 0.0626 | 0.0705 | 0.0647 | 0.0682 | 0.0639 | 0.0611 | 0.0613 | – | 0.0655 | – | 0.0712 | 0.0799 | 0.0637 | – | –
7 | V113T | 0.0479 | 0.0652 | 0.0544 | 0.0559 | 0.0932 | 0.069 | – | 0.0584 | – | 0.0358 | 0.0525 | – | 0.0541 | 0.057 | – | – | – | 0.0804 | –
8 | T114P | 0.0821 | 0.0573 | 0.0689 | – | – | 0.057 | – | 0.0296 | – | 0.045 | 0.0634 | – | – | – | 0.0565 | – | – | 0.057 | –
9 | T114Q | 0.0591 | – | 0.0648 | 0.0767 | – | 0.0669 | 0.0765 | – | 0.0684 | 0.0587 | 0.066 | 0.0976 | 0.0649 | 0.0567 | 0.0688 | 0.0815 | – | 0.0672 | 0.069
10 | T114V | 0.0688 | – | 0.0683 | 0.0997 | – | 0.0753 | 0.0696 | 0.0652 | – | – | 0.086 | – | 0.0603 | 0.0804 | 0.0588 | 0.0618 | 0.0673 | 0.0659 | –
11 | T115W | 0.0753 | – | – | 0.0581 | – | – | – | 0.0766 | 0.0739 | 0.0888 | 0.0645 | 0.0756 | – | 0.0562 | – | 0.0668 | – | 0.0622 | –
12 | N116E | 0.0635 | – | 0.0284 | 0.0675 | 0.0585 | 0.0611 | 0.0759 | 0.0651 | 0.0736 | 0.0594 | 0.0676 | 0.0712 | 0.0619 | 0.0439 | 0.0649 | 0.0837 | 0.0651 | 0.079 | 0.0668
13 | N116K | 0.0638 | 0.0705 | – | – | – | – | 0.072 | – | 0.0669 | 0.0659 | 0.035 | – | – | – | – | – | – | 0.0623 | –
14 | F117G | 0.0696 | 0.0518 | 0.0768 | – | 0.0668 | 0.0728 | – | – | – | 0.0532 | 0.0654 | 0.0554 | – | 0.0608 | 0.08 | – | – | 0.045 | –
15 | F117K | 0.005 | 0.0854 | – | 0.0679 | 0.0696 | 0.0654 | 0.057 | – | – | 0.0579 | – | – | 0.0774 | – | – | – | – | – | 0.059
